Our source for the binding values is article PMC2441632.

No constants are given. Whether binding was seen depends on the method and setting. Binding seen in cells or lysates may run through a third protein.

The assay concerns the target T1, full length murine TAF3 (mTAF3), Sf9 extract (mouse) (UniProt Q5HZG4).
T1 sequence: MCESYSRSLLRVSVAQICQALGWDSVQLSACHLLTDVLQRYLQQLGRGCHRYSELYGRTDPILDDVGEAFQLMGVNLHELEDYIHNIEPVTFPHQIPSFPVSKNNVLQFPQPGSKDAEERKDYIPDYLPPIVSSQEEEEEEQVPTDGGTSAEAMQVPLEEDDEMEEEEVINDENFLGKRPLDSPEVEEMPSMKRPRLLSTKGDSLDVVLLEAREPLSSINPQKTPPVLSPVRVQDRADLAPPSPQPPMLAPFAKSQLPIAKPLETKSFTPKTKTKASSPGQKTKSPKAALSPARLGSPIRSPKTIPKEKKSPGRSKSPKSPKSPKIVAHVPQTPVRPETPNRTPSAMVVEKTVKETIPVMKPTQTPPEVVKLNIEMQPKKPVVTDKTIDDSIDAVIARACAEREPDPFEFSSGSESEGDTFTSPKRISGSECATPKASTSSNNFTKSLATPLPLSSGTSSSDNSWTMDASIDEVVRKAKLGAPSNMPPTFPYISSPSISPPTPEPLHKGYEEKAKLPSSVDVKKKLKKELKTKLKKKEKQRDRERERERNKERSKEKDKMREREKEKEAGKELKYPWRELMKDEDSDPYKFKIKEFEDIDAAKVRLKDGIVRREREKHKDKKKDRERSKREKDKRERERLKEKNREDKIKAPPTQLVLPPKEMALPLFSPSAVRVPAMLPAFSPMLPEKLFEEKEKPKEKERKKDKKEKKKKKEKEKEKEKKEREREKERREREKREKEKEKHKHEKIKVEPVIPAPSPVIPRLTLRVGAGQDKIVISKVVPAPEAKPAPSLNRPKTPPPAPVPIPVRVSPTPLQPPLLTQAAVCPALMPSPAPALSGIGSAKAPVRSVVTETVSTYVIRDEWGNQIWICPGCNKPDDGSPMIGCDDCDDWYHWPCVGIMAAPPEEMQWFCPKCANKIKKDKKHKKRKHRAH
The assay is described as follows: co-IP; in vitro translated 35S-labelled proteins mixed with Sf9 extract overexpressing mTAF3; immunoprecipitation with anti-TAF3 39TA2F5; washed 3 times with PBS and once with PBS with 200 mM KCl; fluorography.

B1: Drosophila melanogaster ADA2A, in vitro translated (protein, UniProt Q7KSD8 1-562)
chain: MSFMNPVDMVDEDAADLQFPKVALLHIFTTLNCLFAVEPLGPQVKRFIHAHQNEHTRNSMVLYNPHTLHRYLEEMEEKTRDQNSSVPSATKDANRCATCRCSLTEPYIKCSECLDTLLCLQCFSRGKEAFSHRNNHAYIIVRDNIQVFADEPHWTARDERILLKTLRTHGYGNWEAVSQALDQRHEPAEVRRHYHDCYFGGIFERLLNLKHARDSYVPERMPYVFKMRSLDPPRHDDIASMQFRLSAGYRCARGDFDTPYDTSAESLLSIMVDHRGRDDDNEASESEFEREVTEELQLGLVRAYNNRLRERQRRYKIMRQHGLIMPNRTVSWISKYVHAFGSDASCMRFLGFMQICPDPIKFDMLLESLRYYRELHSQLHKLYDLREHGVRTLSGAKLYARLSKERQQAQRDYSRLKQTDAFDWQQLVQHYESNRSGDPGPLAINSKLYVMNTRRKASPIEIGGGKHFTHCLTPTEYNFSLIPDLPGYSKLDDGERKLCSVARLVPQSYLDYKNQLVTEQAKLGYLRLADARRLIKIDVNKTRQIYDFLLEHGHISRPPSYG
modifications: 35S methionine label
In the case of B1, the binding result is recorded as “no binding”.
